Experimental data from ChEMBL document CHEMBL5303300, “EUbOPEN Chemogenomics Library - Multiplex” (2023).

Tests used:
Format in all cases: toxicity, cell-based
U2OS = assay: Multiplex assay against U2OS; settings: human, number of replicates 2
Summary of the method: (§1)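 Imaging took place on a CQ1 microscope at 37°C and 5% CO2 once compound had been added to live cells stained at seeding with Hoechst33342, BioTracker Green Microtubule Cytoskeleton Dye, MitoTracker Red and Annexin V Alexa Fluor 680. CellPathfinder machine-learning gating classed cells as Hoechst high-intensity objects or normal cells, classed normal cells as having healthy, pyknosed or fragmented nuclei, and classed pyknosed cells as mitotic or apoptotic. Tubulin, mitochondrial-mass and membrane-permeability phenotypes are per cents of the healthy-nucleus cells.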

HEK-293T = assay: Multiplex assay against HEK293T; settings: human, 10 µM, compound concentration 10 uM, number of replicates 2; summary of the method: as §1
Fibroblast = assay: Multiplex assay against human fibroblast; settings: number of replicates 2; summary of the method: as §1
[1] = 12 h, 1 µM, compound concentration 1 uM
[2] = 12 h, 10 µM, compound concentration 10 uM
[3] = 24 h, 1 µM, compound concentration 1 uM
[4] = 24 h, 10 µM, compound concentration 10 uM
[5] = 48 h, 1 µM, compound concentration 1 uM
[6] = 48 h, 10 µM, compound concentration 10 uM
[7] = 12 h, 0 µM, compound concentration 0 uM
[8] = 24 h, 0 µM, compound concentration 0 uM
[9] = 48 h, 0 µM, compound concentration 0 uM

CN(C)CCCNc1ccnc(Nc2cccc(Cl)c2)n1
Total Cell Count (U2OS; [1]): 245 and 34 | Total Cell Count (U2OS; [2]): 222 and 28 | Total Cell Count (U2OS; [3]): 47 and 325 | Total Cell Count (U2OS; [4]): 257 and 53 | Total Cell Count (U2OS; [5]): 76 and 656 | Population Mitotic Cells (%) (U2OS; [6]): 5% and 26% | Total Cell Count (U2OS; [6]): 53 and 279 | Population Apoptotic (%) (HEK-293T; 48 h): 13% and 57%

COc1cc(C(N)=O)ccc1Nc1ncc2c(n1)N(CCC(C)C)[C@H](C)C(=O)N2C
Population Fragmented Nuclei (%) (U2OS; [7]): 38% and 12% | Total Cell Count (U2OS; [7]): 42 and 157 | Population Fragmented Nuclei (%) (U2OS; [1]): 28% and 8% | Population Mitochondria Different-Phenotype (%) (U2OS; [1]): 21% and 2% | Population Mitotic Cells (%) (U2OS; [1]): 0% and 38% | Total Cell Count (U2OS; [1]): 21 and 142 | Total Cell Count (U2OS; [8]): 41 and 163 | Population Fragmented Nuclei (%) (U2OS; [3]): 56% and 17% | Population Membrane Permeable-Phenotype (%) (U2OS; [3]): 12% and 1% | Population Mitochondria Different-Phenotype (%) (U2OS; [3]): 25% and 1% | Population Mitotic Cells (%) (U2OS; [3]): 33% and 5% | Total Cell Count (U2OS; [3]): 25 and 212 | Population Mitotic Cells (%) (U2OS; [9]): 25% and 4% | Population Pyknosed Nuclei (%) (U2OS; [9]): 8% and 29% | Total Cell Count (U2OS; [9]): 49 and 162 | Population Healthy Nuclei (%) (U2OS; [5]): 20% and 61% | Population Membrane Permeable-Phenotype (%) (U2OS; [5]): 14% and 2% | Population Mitochondria Different-Phenotype (%) (U2OS; [5]): 14% and 2% | Total Cell Count (U2OS; [5]): 34 and 304 | Population Membrane Permeable-Phenotype (%) (Fibroblast; [7]): 30% and 9% | Population Mitotic Cells (%) (Fibroblast; [7]): 12% and 43% | Population Pyknosed Nuclei (%) (Fibroblast; [8]): 16% and 5%

Cc1ccc2c(N)c(C(=O)NC3CCc4cc(N5CC6CCC(C5)N6)ccc4C3)sc2n1.O=CO (stereo not drawn)
Population Mitochondria Different-Phenotype (%) (U2OS; [1]): 0% and 37% | Population Mitotic Cells (%) (U2OS; [1]): 0% and 48% | Total Cell Count (U2OS; [1]): 51 and 221 | Population Fragmented Nuclei (%) (U2OS; [2]): 41% and 13% | Total Cell Count (U2OS; [2]): 55 and 231 | Population Mitochondria Different-Phenotype (%) (U2OS; [3]): 14% and 43% | Total Cell Count (U2OS; [3]): 49 and 204 | Population Fragmented Nuclei (%) (U2OS; [4]): 41% and 13% | Population Membrane Permeable-Phenotype (%) (U2OS; [4]): 50% and 9% | Total Cell Count (U2OS; [4]): 45 and 221 | Total Cell Count (U2OS; [5]): 57 and 215 | Population Fragmented Nuclei (%) (U2OS; [6]): 31% and 6% | Population Hoechst High Intensity Objects (%) (U2OS; [6]): 4% and 16% | Population Mitotic Cells (%) (U2OS; [6]): 46% and 12% | Total Cell Count (U2OS; [6]): 43 and 180 | Population Mitotic Cells (%) (HEK-293T; 24 h): 4% and 27%

CCN(CC)C/C=C/C(=O)Nc1cc2c(Nc3ccc(F)c(Cl)c3)ncnc2cc1OCC1CC1
Population Fragmented Nuclei (%) (U2OS; [1]): 20% and 6% | Total Cell Count (U2OS; [1]): 39 and 151 | Total Cell Count (U2OS; [2]): 43 and 145 | Population Fragmented Nuclei (%) (U2OS; [3]): 24% and 3% | Total Cell Count (U2OS; [3]): 50 and 193 | Population Fragmented Nuclei (%) (U2OS; [4]): 9% and 41% | Population Membrane Permeable-Phenotype (%) (U2OS; [4]): 86% and 0% | Population Mitochondria Different-Phenotype (%) (U2OS; [4]): 73% and 0% | Population Fragmented Nuclei (%) (U2OS; [5]): 23% and 6% | Population Mitotic Cells (%) (U2OS; [5]): 15% and 1% | Total Cell Count (U2OS; [5]): 56 and 249 | Population Fragmented Nuclei (%) (U2OS; [6]): 51% and 5% | Population Mitochondria Different-Phenotype (%) (Fibroblast; [2]): 22% and 7%

COC(=O)Nc1nc2c(s1)-c1c(c(-c3cccnc3)nn1-c1ccc(C3(N(C)C)CC3)cc1)CC2.Cl.Cl
Population Fragmented Nuclei (%) (U2OS; [1]): 50% and 12% | Population Membrane Permeable-Phenotype (%) (U2OS; [1]): 22% and 7% | Total Cell Count (U2OS; [1]): 61 and 204 | Population Healthy Nuclei (%) (U2OS; [2]): 2% and 19% | Population Fragmented Nuclei (%) (U2OS; [3]): 58% and 8% | Total Cell Count (U2OS; [3]): 63 and 213 | Population Healthy Nuclei (%) (U2OS; [4]): 2% and 17% | Population Fragmented Nuclei (%) (U2OS; [5]): 58% and 8% | Total Cell Count (U2OS; [5]): 67 and 240 | Population Healthy Nuclei (%) (U2OS; [6]): 1% and 12% | Population Mitotic Cells (%) (Fibroblast; [3]): 39% and 12%

COc1ccc(F)c(F)c1C(=O)c1cnc(NC2CCN(S(C)(=O)=O)CC2)nc1N [RG-547]
Total Cell Count (U2OS; [1]): 38 and 180 | Total Cell Count (U2OS; [2]): 50 and 181 | Total Cell Count (U2OS; [3]): 36 and 162 | Total Cell Count (U2OS; [4]): 46 and 171 | Total Cell Count (U2OS; [5]): 46 and 197 | Population Membrane Permeable-Phenotype (%) (U2OS; [6]): 58% and 0% | Population Mitochondria Different-Phenotype (%) (U2OS; [6]): 41% and 0% | Total Cell Count (U2OS; [6]): 156 and 46 | Population Membrane Permeable-Phenotype (%) (Fibroblast; [5]): 63% and 5% | Population Tubulin-Different-Phenotype (%) (Fibroblast; [5]): 63% and 5% | Total Cell Count (Fibroblast; [5]): 26 and 178

CC1=C(C)C(=O)C(C(CCCCCC(=O)O)c2ccccc2)=C(C)C1=O (stereo not drawn) [SERATRODAST]
Total Cell Count (U2OS; [1]): 35 and 265 | Population Fragmented Nuclei (%) (U2OS; [2]): 26% and 3% | Total Cell Count (U2OS; [2]): 76 and 303 | Total Cell Count (U2OS; [3]): 40 and 395 | Population Fragmented Nuclei (%) (U2OS; [4]): 23% and 4% | Total Cell Count (U2OS; [4]): 98 and 410 | Total Cell Count (U2OS; [5]): 101 and 857 | Total Cell Count (U2OS; [6]): 150 and 894 | Population Pyknosed Nuclei (%) (Fibroblast; [1]): 36% and 8% | Population Pyknosed Nuclei (%) (Fibroblast; [3]): 31% and 10% | Population Apoptotic (%) (Fibroblast; [4]): 63% and 14% | Population Pyknosed Nuclei (%) (Fibroblast; [5]): 25% and 7%

Some entries of the source have several records that differ or are many. This list holds those alone. An entry can have further records. Results that share an entry repeat one measurement in other runs, samples, wells, individuals or studies.
